Test results published in the supplement of paper PMC3334620.
Whole data set: some 33,000 sequences, median “E-score (-0.5 to 0.5)” near -0.013, cut for the highest 2% near 0.3. The list shows a part of the results.

Target: T1, Msn1 (UniProt P22148)
T1 sequence: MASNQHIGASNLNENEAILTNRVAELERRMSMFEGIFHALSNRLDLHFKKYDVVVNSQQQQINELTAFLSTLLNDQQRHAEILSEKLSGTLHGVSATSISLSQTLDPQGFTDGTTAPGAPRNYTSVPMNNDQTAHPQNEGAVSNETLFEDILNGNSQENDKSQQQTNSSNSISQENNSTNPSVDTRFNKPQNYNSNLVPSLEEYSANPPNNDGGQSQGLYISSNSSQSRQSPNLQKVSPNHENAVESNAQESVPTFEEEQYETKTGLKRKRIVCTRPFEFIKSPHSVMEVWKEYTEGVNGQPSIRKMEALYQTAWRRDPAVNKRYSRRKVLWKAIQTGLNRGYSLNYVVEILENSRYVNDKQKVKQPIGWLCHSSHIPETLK
Assay: PBM E-score (8-mer binding enrichment) (E-score (-0.5 to 0.5)); higher = stronger / more preferred TF binding; most listed sequences are background and not binding sites
Conditions: protein concentration: 200 nM; construct: GST-full length
How it was run: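 Yeast transcription factors carrying a GST tag, as full-length proteins or DNA-binding domains, were produced by PURExpress in vitro transcription/translation. About 100-200 nM protein was applied to universal all-10-mer Agilent arrays, double-stranded by primer extension on fresh or once-stripped slides. Bound protein was detected with fluorescent anti-GST, and scans were normalised with masliner. The Universal PBM Analysis Suite gave each ungapped eight-base word, pooled with its reverse complement, an E-score, a modified Wilcoxon-Mann-Whitney statistic.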

| Sequence | PBM E-score |
| --- | --- |
| CTGTGGGA | -0.0877 |
| CAAATACA | 0.094 |
| GCGATAGC | -0.194 |
| TAGAGAAA | 0.0253 |
| CTAATTTC | 0.183 |
| CACACGGG | 0.00643 |
| AAGCAAAA | 0.165 |
| GCTTCATA | 0.0223 |
| CCGCCCCC | -0.353 |
| CAGCTCCA | -0.122 |
| AATACAAG | 0.134 |
| CTCGAAAC | 0.0861 |
| CAAACAGG | 0.111 |
| CAGCGGGC | -0.075 |
| AAAAACTT | 0.0862 |
| AATCATGA | 0.247 |
| CCTGCTCC | -0.0282 |
| AGTTTGGC | 0.0323 |
| TCAAGACA | 0.247 |
| CCAAGTCA | -0.179 |
| AATAAAAG | 0.106 |
| GGGACTCA | 0.0181 |
| TCGCACGA | -0.107 |
| ACCAGATG | -0.028 |
| CCAGACCC | -0.308 |

| Sequence | PBM E-score |
| --- | --- |
| CAGATTCG | -0.0284 |
| CGGGCCCC | -0.295 |
| AGGCGCCA | -0.121 |
| GGTGACAC | -0.0303 |
| CCGAGGGA | -0.228 |
| GTAATTGA | 0.0433 |
| GACCGGGA | -0.13 |
| ATGGCAAT | 0.0456 |
| CTAGCTAC | -0.156 |
| GATTTACC | 0.147 |
| CAAATTCA | -0.081 |
| CCACCCGC | -0.282 |
| ACACCACT | 0.0915 |
| AACAAGCT | -0.0167 |
| GTTTGGGA | 0.185 |
| CATCCCAC | -0.217 |
| GATTCAAA | 0.0389 |
| ACGCCCCG | -0.14 |
| CCTGACAC | 0.0219 |
| CGGCGCCA | -0.0198 |
| CAGAGCCG | -0.0822 |
| ACTAATGG | 0.0668 |
| GATAGTGC | -0.0686 |
| AAGAGGAG | -0.147 |
| ATACCTAG | -0.0479 |

| Sequence | PBM E-score |
| --- | --- |
| GAGTTATC | 0.126 |
| CACCTTTA | -0.0449 |
| AGTGTGTA | -0.0905 |
| AGTACAGA | 0.144 |
| TACCGGGA | 0.148 |
| AACATTAA | 0.158 |
| ACACTCGT | -0.0408 |
| CTCATCTA | -0.0905 |
| CGAATCAG | -0.0431 |
| ACCGCATC | -0.105 |
| CGCGATTC | 0.0594 |
| AGATCACC | -0.0232 |
| AGCACTGG | -0.216 |
| TACTACTA | 0.243 |
| CCACTGAG | -0.249 |
| GATCCAAA | 0.0844 |
| AGCTCACC | -0.141 |
| AGTCCGAG | 0.301 |
| ACAACCAT | 0.233 |
| ACCCTTAT | -0.0336 |
| CCCCCGGA | -0.386 |
| AATCGCGC | 0.0361 |
| AAAATTCG | 0.232 |
| GAAGCAAC | -0.0717 |
| CGCGGTGA | -0.0343 |

| Sequence | PBM E-score |
| --- | --- |
| AAAACATC | 0.131 |
| CAACAGAG | 0.0497 |
| AACGCGTC | 0.154 |
| GCGAAATA | 0.00476 |
| CCATTCCA | -0.00223 |
| AGGAGGGC | -0.318 |
| CTGGGAGC | -0.181 |
| CGGAGACA | 0.27 |
| CCATACCC | -0.252 |
| GGCACCGA | -0.0783 |
| CTGTGGGC | -0.0947 |
| AAACTTCC | -0.0758 |
| GATATACC | 0.0797 |
| TAGGAACA | 0.0697 |
| GTTCCCCA | -0.0857 |
| AACGCGTT | 0.0117 |
| GATGTGAA | 0.00964 |
| TAAGCTCA | -0.0986 |
| AAGCTCAG | 0.00757 |
| AAACGAAA | 0.25 |
| CGTTTGAG | 0.0785 |
| CCACACGA | 0.00165 |
| AGATATCA | 0.0525 |
| TGGTATAA | 0.152 |
| GAACTTCC | -0.0268 |

| Sequence | PBM E-score |
| --- | --- |
| CATAGCGC | 0.0322 |
| CATAACGC | 0.107 |
| ACTAACCC | -0.0861 |
| GACGGAGA | -0.0925 |
| AGTCATCG | 0.0215 |
| TCGTGTAA | 0.0713 |
| CTGAGAAG | -0.24 |
| ATTGCCCA | -0.0823 |
| TGACGCCA | -0.115 |
| CCTACACC | -0.158 |
| GCCTTAGA | -0.00676 |
| CATATGGA | 0.14 |
| GAGCCGAC | -0.141 |
| CGCCTATA | 0.035 |
| AAATTAAT | 0.199 |
| AGCTCTGC | -0.348 |
| TGTACAAA | 0.392 |
| AGAGTTAG | -0.0948 |
| CTGTATAA | 0.0876 |
| AGCTTGCG | -0.111 |
| AATGTAGA | -0.00408 |
| ATTCATAG | 0.0666 |
| CAATTGGC | 0.124 |
| ACCGAACA | 0.109 |
| CCGGAGCA | 0.0316 |

| Sequence | PBM E-score |
| --- | --- |
| GCTTGTAC | 0.267 |
| TCCATTAA | 0.176 |
| GCGCCAGA | -0.123 |
| GTATCCAC | -0.0737 |
| TTAGCAAA | 0.0995 |
| AAAGTGCG | 0.073 |
| GACATAGA | 0.36 |
| TACCGCCA | 0.011 |
| CTCAAAAG | -0.0203 |
| CGTATGCC | -0.0374 |
| ATAGCGCA | -0.137 |
| CGTGTATA | -0.112 |
| ACAATCAT | 0.0881 |
| ATGTCTTG | 0.35 |
| AAGCGAAG | -0.00401 |
| AGTGAATG | 0.00927 |
| TACGATCA | -0.0427 |
| GCGCAAGA | 0.181 |
| GACTCTTA | 0.102 |
| CCCTGAAC | 0.0866 |
| CTCTGAGA | -0.0856 |
| CATCCAGC | -0.172 |
| CCATGGCC | -0.221 |
| AGGCGTCC | -0.0833 |
| GGCGGAAC | -0.0382 |

| Sequence | PBM E-score |
| --- | --- |
| GAGCTAGA | -0.214 |
| AACAAAAG | 0.101 |
| AGACCTAT | 0.0787 |
| CCTATTGA | 0.0297 |
| AAGCCCAT | -0.203 |
| AAGGCCAA | -0.2 |
| AACATCAT | -0.0587 |
| CTGCCTTC | -0.116 |
| GCTCACCC | -0.203 |
| CTTACTAA | 0.0341 |
| GATGAGAC | 0.216 |
| CGGGTCAG | 0.0673 |
| CGCGAAAG | -0.0559 |
| CAAAGCTC | -0.224 |
| CCAAACAG | -0.0873 |
| GAGTAGAC | -0.0442 |
| GAGCGCTA | -0.147 |
| AGTGACAT | 0.3 |
| GCCAGGAA | -0.00772 |
| AACGTAGG | -0.224 |
| AACACGTA | 0.0503 |
| GACCGTCC | -0.231 |
| CCATAGAC | 0.037 |
| GTTATCCA | -0.0172 |
| AATTCATA | -0.0103 |

| Sequence | PBM E-score |
| --- | --- |
| CCAGTTAA | 0.0896 |
| CTGTTTAC | 0.0108 |
| ACTCTGCC | -0.0152 |
| ACCGAGAA | 0.149 |
| CTCCTAAC | -0.278 |
| ACGCACTG | -0.121 |
| AAAAGACA | 0.342 |
| CATGGAAA | 0.197 |
| ACAGCAGG | -0.0564 |
| AATCATCA | 0.0708 |
| CCCATTAA | -0.00813 |
| CCACGCGG | 0.017 |
| GAGTGGGA | -0.0603 |
| GAAGCATA | -0.171 |
| GCTATTTA | 0.0605 |
| ATGACGGA | 0.0931 |
| CGCGTTCC | -0.0769 |
| ATTCGACC | -0.0378 |
| TGTAATAA | 0.0141 |
| CTGATGAA | -0.0521 |
| AACCTGTC | 0.119 |
| ATAGCCAT | -0.0927 |
| AGTTGGGA | 0.0253 |
| GAGTGAGA | -0.113 |
| ATAGCTCG | -0.0341 |

| Sequence | PBM E-score |
| --- | --- |
| CTACCAGA | 0.0598 |
| ACGACACA | 0.172 |
| CGCAGCCA | -0.171 |
| ATGCGTAC | 0.161 |
| TCACAAGA | -0.0355 |
| CGCCGAAC | 0.14 |
| GTTTGCGA | 0.192 |
| CAAGGTGA | 0.0693 |
| ATAACCGA | 0.0218 |
| GCAGTGCC | -0.3 |
| ATATGTCA | 0.401 |
| CGGCAGAA | -0.0946 |
| GGTCACGA | 0.0015 |
| TGGAACCA | 0.0913 |
| AAACGATT | 0.15 |
| CAGCGAGG | -0.0858 |
| GCATCTGA | -0.352 |
| CAAGTAAG | 0.0617 |
| ACGAACCA | 0.232 |
